Source: US20240341309A1, “HERBICIDAL COMPOSITIONS” (SYNGENTA CROP PROTECTION AG, priority 2021, published 2024)

Assays:
[1] = test system: Sorghum halepense (SORHA); test: Post-emergence efficacy against Sorghum halepense; assay type: in vivo; conditions: 100=total damage to plant, 0=no damage
[2] = test system: Amaranthus tuberculatus (AMATA); test: Post-emergence efficacy against Amaranthus tuberculatus; conditions: 20DAA, 100=total damage to plant, 0=no damage
[3] = test system: Echinochloa crus-galli (ECHCG); test: Post-emergence efficacy against Echinochloa crus-galli; assay type: in vivo; conditions: 100=total damage to plant, 0=no damage
[4] = test system: Amaranthus palmeri (AMAPA); test: Post-emergence efficacy against Amaranthus palmeri; assay type: in vivo; conditions: 18DAA, rate 250 g/ha, 100=total damage to plant, 0=no damage

O=C(O)COc1ccc(Cl)cc1Cl [Formula B1, 2,4-D, reference compound]
Observed ([1]; 17DAA, rate 250 g/ha): 65

COc1c(Cl)ccc(Cl)c1C(=O)O [Formula B3g, dicamba, reference compound]
Observed ([2]; rate 250 g/ha): 90

COc1c(Cl)ccc(-c2nc(C(=O)OCc3ccccc3)c(Cl)c(N)c2F)c1F [Formula B4a, florpyrauxifen-benzyl, reference compound]
Observed ([3]; 15DAA, rate 4 g/ha): 58

Nc1c(Cl)c(F)nc(OCC(=O)O)c1Cl [Formula B5, fluroxypyr]
Observed [4]: 79

COC(=O)c1nc(-c2ccc(Cl)c(OC)c2F)cc(N)c1Cl [Formula B6a, halauxifen-methyl, reference compound]
Observed ([1]; 18DAA, rate 250 g/ha): 41

O=C(O)COc1nc(Cl)c(Cl)cc1Cl [Formula B7, triclopyr, reference compound]
Observed ([3]; 18DAA, rate 250 g/ha): 19

CC#Cc1ccc(C2=C(OC(=O)OC)C3CCC(C3)C2=O)c(OC)c1 (centres unmarked) [Ic]
Observed ([3]; 15DAA, rate 12.5 g/ha): 66
Observed ([3]; 18DAA, rate 12.5 g/ha): 44
Observed ([3]; 18DAA, rate 25 g/ha): 65
Observed ([3]; 18DAA, rate 50 g/ha): 91
Observed ([2]; rate 12.5 g/ha): 5
Observed ([2]; rate 25 g/ha): 5
Observed ([2]; rate 50 g/ha): 5
Observed ([2]; rate 100 g/ha): 5
Observed ([1]; 17DAA, rate 12.5 g/ha): 73
Observed ([1]; 17DAA, rate 25 g/ha): 87
Observed ([1]; 17DAA, rate 50 g/ha): 93
Observed ([1]; 17DAA, rate 100 g/ha): 98
Observed ([1]; 18DAA, rate 12.5 g/ha): 50
Observed ([1]; 18DAA, rate 25 g/ha): 87
